In the supplement of paper PMC9334596:
Several values for one entry are separate records, joined by “and”; a condition that tells them apart may be missing. Equal values may be shown once. The full ranking holds about 5,300 compounds; the median of “PER2::LUC luminescence relative to vehicle control” is about 0.96, and the highest 2% start at about 1.3. The list shows a part of the results.

Test system: mPer2Luc MEF
Assay: PER2::LUC luminescence relative to vehicle control (fold of vehicle); higher = higher PER2::LUC reporter signal
Settings: 10 µM
How it was run: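 In 384-well plates, ~3000 mPer2Luc reporter mouse embryonic fibroblasts per well were cultured in DMEM with 10% FBS at 37 °C and 5% CO2 for 48 h before compounds from commercial libraries were added at 10 μM. ONE-Glo luciferase readings were taken 24 h and 30 h after treatment. Each value is PER2::LUC luminescence given as fold of vehicle control.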

Row | Structure (SMILES) | PER2::LUC luminescence (time after treatment 24 h) | PER2::LUC luminescence (time after treatment 30 h)
1 | O=C(c1c2ccccc2cc2ccccc12)N1CCC(N2CCC[C@@H](C(=O)N3CCOCC3)C2)CC1 | 0.752 | 0.65
2 | COc1cccc2c1C(=O)c1c(O)c3c(c(O)c1C2=O)C[C@@](O)(C(=O)CO)C[C@@H]3O[C@H]1C[C@H](N)[C@H](O)[C@H](C)O1 | 1.26 | 1.18
3 | NC1CCN(O)C1=O (single isomer, unassigned; (+)) | 0.99 | 0.883
4 | CCC(=O)O[C@@H](O[P@](=O)(CCCCc1ccccc1)CC(=O)N1C[C@H](C2CCCCC2)C[C@H]1C(=O)O)C(C)C | 0.617 | 0.741
5 | O=c1cc(-c2ccc(O)cc2)oc2cc(O)c([C@@H]3O[C@H](CO)[C@@H](O)[C@H](O)[C@H]3O)c(O)c12 | 0.972 | 0.983
6 | Cc1cc2c(cc1S(N)(=O)=O)S(=O)(=O)CCC2 | 0.927 | 1.05
7 | CC1(C)CC[C@]2(C)CC[C@]3(C)C(=CC[C@@H]4[C@@]5(C)CC[C@H](O)C(C)(C)[C@@H]5CC[C@]43C)[C@@H]2C1 | 1.09 | 0.999
8 | CN1CCc2cc(O)c(O)cc2C(c2ccccc2)C1 (stereo not given) | 0.893 | 0.746
9 | Clc1cnccn1 | 0.97 | 0.951
10 | CC(C)OC(=O)[C@H](C)N[P@](=O)(OC[C@H]1O[C@@H](n2ccc(=O)[nH]c2=O)[C@](C)(F)[C@@H]1O)Oc1ccccc1 | 1.07 | 0.997
11 | NCCNCCNCCNCCN | 1.04 | 1
12 | NC(=O)c1cc[n+](CC2=C(C(=O)O)N3C(=O)[C@@H](NC(=O)[C@@H](c4ccccc4)S(=O)(=O)[O-])[C@H]3SC2)cc1 | 1.01 | 1.01
13 | CCCCCCCCCc1ccc(OCCOCCOCCOCCOCCOCCOCCOCCOCCO)cc1 | 0.756 | 0.762
14 | CC(C)c1ccc2oc3nc(N)c(C(=O)O)cc3c(=O)c2c1 | 1.07 | 1.49
15 | CC1(C)S[C@@H]2[C@H](NC(=O)[C@H](NC(=O)N3CCNC3=O)c3ccccc3)C(=O)N2[C@H]1C(=O)O | 1.21 | 1.13
16 | COC(=O)Nc1nc2cc(C(=O)c3ccccc3)ccc2[nH]1 | 0.577 | 0.605
17 | COc1ccccc1-c1nc(-c2ccccn2)no1 | 0.948 | 0.943
18 | C[C@@H]1O[C@@H](OC[C@H]2O[C@@H](Oc3cc(O)c4c(c3)O[C@H](c3ccc(O)cc3)CC4=O)[C@H](O)[C@@H](O)[C@@H]2O)[C@H](O)[C@H](O)[C@H]1O | 0.957 | 0.972
19 | O=C1[C@H](Cc2ccc(O)cc2)N2C(=O)CCN(C(=O)NCc3ccccc3)[C@H]2CN1Cc1cccc2ccccc12 | 0.412 | 0.574
20 | CCCCCCc1ccc(O)cc1O.Nc1c2ccccc2nc2ccccc12 | 0.559 | 0.691
21 | O=C(O)c1cccnc1Nc1cccc(C(F)(F)F)c1 | 1.07 | 1.15
22 | Cc1oncc1C(=O)Nc1ccc(C(F)(F)F)cc1 | 1.35 | 1.82

Row | Structure (SMILES) | PER2::LUC luminescence (time after treatment 24 h) | PER2::LUC luminescence (time after treatment 30 h)
23 | COc1ccc(C(Cl)=C(c2ccc(OC)cc2)c2ccc(OC)cc2)cc1 | 1.03 | 1.06
24 | CC1CC(OC(=O)C(O)c2ccccc2)CC(C)(C)C1 (stereo not given) | 0.817 | 0.82
25 | CCOC(=O)[C@H](CCc1ccccc1)N[C@@H](C)C(=O)N1Cc2ccccc2C[C@H]1C(=O)O | 0.572 | 0.912
26 | CC(CCc1ccccc1)NCC(O)c1ccc(O)c(C(N)=O)c1 (stereo not given) | 0.395 | 0.828
27 | O=C(O)c1cccc(O)c1O | 0.949 | 0.904
28 | Cc1cn([C@H]2O[C@@H](CO)[C@H](O)[C@H]2F)c(=O)[nH]c1=O | 1.01 | 1.02
29 | Cc1cn(C2C=CC(CO)O2)c(=O)[nH]c1=O (stereo not given) | 1.15 | 1.07
30 | Cc1cc(NC(=O)Nc2ccc(N(C)C)cc2)c2cc(F)cc(F)c2n1 | 0.814 | 0.87
31 | Cc1onc(-c2c(Cl)cccc2Cl)c1C(=O)N[C@@H]1C(=O)N2[C@@H]1SC(C)(C)[C@@H]2C(=O)O | 1.12 | 0.94
32 | COc1cc2ncnc(N(C)c3cccc(Br)c3)c2cc1OC | 0.83 | 0.741
33 | C[C@@]1(F)[C@H](O)[C@@H](CO)O[C@H]1n1ccc(=O)[nH]c1=O | 0.965 | 0.937
34 | Cn1cc(-c2ccc3ncc(Cc4ccc5ncccc5c4)n3n2)cn1 | 1.08 | 1.04
35 | Cc1cc(O)c(C=O)c2c1C(=O)Oc1c(C)c(O)c3c(c1O2)C(O)OC3=O (stereo not given) | 0.973 | 1.02
36 | CN1C(C)(C)CCCC1(C)C | 0.952 and 0.86 | 0.875 and 0.798
37 | CC[N+](C)(C)Cc1ccccc1Br | 0.548 | 0.891
38 | CCCCCCCCc1ccc(-c2ccc(C(=O)O)cc2)cc1 | 1.18 | 1.05
39 | C[N+](C)(C)CCCCCC[N+](C)(C)C | 1.08 and 0.915 and 1.01 | 0.904 and 1.05 and 0.777
40 | CC1C(=O)OC2C(O)C34C5CC(C(C)(C)C)C36C(OC(=O)C6O)OC4(C(=O)O5)C12O (stereo not given) | 1.08 | 0.89
41 | O=c1ccc2ccc(OCCCCN3CCN(c4cccc5sccc45)CC3)cc2[nH]1 | 0.628 | 0.637
42 | CC(C)Cc1sc(N)nc1-c1ccc(P(=O)(O)O)o1 | 1.07 | 0.954
43 | CCCCCC[C@@H]([C@@H](C)O)n1cnc2c(N)ncnc21 | 1.24 and 0.841 and 0.788 | 0.793 and 0.805 and 0.851
44 | CN(C)/N=N/c1[nH]cnc1C(N)=O | 1.09 and 0.87 | 1.01 and 0.893

Row | Structure (SMILES) | PER2::LUC luminescence (time after treatment 24 h) | PER2::LUC luminescence (time after treatment 30 h)
45 | O=c1ccc2ccc(O)cc2o1 | 0.893 | 0.906
46 | COc1ccc([C@@H]2CC(=O)c3c(O)cc(O[C@@H]4O[C@H](CO[C@@H]5O[C@@H](C)[C@H](O)[C@@H](O)[C@H]5O)[C@@H](O)[C@H](O)[C@H]4O)cc3O2)cc1O | 0.987 | 0.871
47 | COc1c2ccoc2c(OC)c2oc(=O)ccc12 | 1.01 | 1.03
48 | CC(N)=NCCCC[C@H](N)C(=O)O | 1.05 | 1.09
49 | O=c1cc(N2CCOCC2)oc2c(-c3cccc4c3sc3ccccc34)cccc12 | 0.577 and 1.08 | 0.579 and 1.09
50 | Nc1ncc2c(n1)CC(c1ccco1)CC2=O (stereo not given) | 0.997 | 1.07
51 | CC(C)(C(=O)O)c1ccc(C(O)CCCN2CCC(C(O)(c3ccccc3)c3ccccc3)CC2)cc1 (stereo not given) | 1.07 | 1.03
52 | CCCCc1nc(-c2ccc(OCCCN(CC)CC)cc2)cn1-c1ccc(Oc2ccc(Cl)cc2)cc1 | 0.213 | 0.268
53 | Cc1cc(C(C)(C)C)c(O)c(C)c1CC1=NCCN1 | 1.01 | 0.903
54 | NC(Cc1ccc(Cl)cc1)C(=O)O (stereo not given) | 1.04 and 1.05 | 1.06 and 0.924
55 | CN(C)CCCN1c2ccccc2Sc2ccccc21 | 0.652 | 0.651
56 | O=C(O)COc1ccc(OCCNC[C@H](O)COc2ccccc2)cc1 | 0.9 | 1.02
57 | C=CC(C1=CC(=O)C=CC1=O)c1ccccc1 (stereo not given) | 1.07 | 1.03
58 | O=C[C@H](O)[C@@H](O)[C@H](O)CO | 0.961 | 0.908
59 | O=C1OC2(c3ccccc31)c1cc(I)c(O)c(I)c1Oc1c2cc(I)c(O)c1I | 1.04 | 0.836
60 | O=C(/C=C/c1ccc2ccccc2n1)c1ccncc1 | 0.925 | 0.864
61 | CC(=O)Nc1ccccc1 | 0.881 | 1.21
62 | Cc1cc(C(N)=O)ccc1-n1c(CCC(=O)O)ccc1-c1ccc(-n2ccnc2)cc1 | 1 | 0.98
63 | COC(=O)[C@H]1[C@H]2C[C@H]3c4[nH]c5ccccc5c4CCN3C[C@@H]2CC[C@@H]1O | 0.975 and 0.889 | 0.934 and 0.896
64 | COc1cc(O)c2c(c1)oc(=O)c1c3cc(O)c(O)cc3oc21 | 1.05 | 0.927
65 | C[C@H]1COc2c(C3(N)CC3)c(F)cc3c(=O)c(C(=O)O)cn1c23 | 1.33 and 0.829 | 1.15 and 0.705
66 | CC(C(=O)O)c1ccc2c(c1)Cc1cccnc1O2 (stereo not given) | 0.944 | 0.933

Row | Structure (SMILES) | PER2::LUC luminescence (time after treatment 24 h) | PER2::LUC luminescence (time after treatment 30 h)
67 | CC(C)(C)C(=O)Oc1ccc(S(=O)(=O)Nc2ccccc2C(=O)NCC(=O)O)cc1 | 1.15 | 1
68 | CSc1ccc2c(c1)C(N1CCN(C)CC1)Cc1ccccc1S2 (stereo not given) | 0.759 and 0.696 and 0.536 | 0.758 and 0.749 and 0.481
69 | Clc1ccc(NN=C(c2ccccc2)c2ccccn2)nc1 | 0.769 | 0.719
70 | O=C(O)CC1CCC(c2ccc(-c3ccc4nc(C(=O)NCc5ccc(OC(F)(F)F)cc5)cn4c3)cc2)CC1 (stereo not given) | 1 | 1.1
71 | C[N+]1(C)[C@@H]2C[C@@H](OC(=O)C(O)(c3cccs3)c3cccs3)C[C@H]1[C@@H]1O[C@@H]12 | 1.04 | 1.04
72 | Cc1ccccc1-c1cc(N2CCN(C)CC2)ncc1N(C)C(=O)C(C)(C)c1cc(C(F)(F)F)cc(C(F)(F)F)c1 | 1.05 | 0.981
73 | C[N+]1(C)[C@@H]2CC[C@H]1C[C@@H](OC(=O)C(O)c1ccccc1)C2 (stereo not given in full) | 0.967 | 1.18
74 | Cc1ccc(O)c(N=Nc2ccccc2)n1 | 1.05 | 0.998
75 | Cc1c(C)c2c(c(C)c1O)CCC(C)(COc1ccc(CC3SC(=O)NC3=O)cc1)O2 (stereo not given) | 1.04 | 1.04
76 | C[C@]1(OC(=O)/C=C/c2ccccc2)C[C@@H](O)[C@]2(O)C=CO[C@@H](O[C@@H]3O[C@H](CO)[C@@H](O)[C@H](O)[C@H]3O)[C@@H]21 | 1.04 | 1.05
77 | COc1ccc2c(c1)OC/C(=C\c1ccc(OC)c(O)c1)C2=O | 0.879 | 0.794
78 | O=S(=O)(c1ccc(Cl)cc1)N1CCN(c2ccnc3cc(Cl)ccc23)CC1 | 1.27 | 1.1
79 | COC(=O)C1=C(C)NC(C)=C(C(=O)OCCN2CCN(C(c3ccccc3)c3ccccc3)CC2)C1c1cccc([N+](=O)[O-])c1 (stereo not given) | 0.986 and 1.03 and 1.09 | 1.07 and 0.984 and 1.24
80 | CC(C)N(C[C@H]1O[C@@H](n2cnc3c(N)ncnc32)[C@H](O)[C@@H]1O)[C@H]1C[C@@H](CCc2nc3cc(C(C)(C)C)ccc3[nH]2)C1 | 1.05 | 1.04
81 | COC(c1ccccc1)(c1ccccc1)[C@H](Oc1nc(C)cc(C)n1)C(=O)O | 0.919 | 1.11
82 | O=C(O)c1cc(=O)cc(C(=O)O)[nH]1 | 0.966 | 0.958
83 | Cc1nc(C#Cc2cccnc2)cs1 | 1.15 | 1.26
84 | OC[C@H]1O[C@H](O[C@]2(CCl)O[C@H](CCl)[C@@H](O)[C@@H]2O)[C@H](O)[C@@H](O)[C@H]1Cl | 0.999 | 1.07
85 | CNC(=O)c1cc(Oc2ccc(NC(=O)Nc3cc(C(C)(C)C)nn3-c3ccc4ncccc4c3)c(F)c2)ccn1 | 1.11 | 0.53
